Test results: PMC4336329 (PLoS ONE, 2015)
About 2,200 (0.71%) of roughly 310,000 compounds showed an effect of 50% or more. Effects have a minus sign here. The list shows a part of the results. Where a SMILES comes first, the peptide text is derived from it. The star is where a group is joined. Boc = CC(C)(C)OC(=O)*; OtBu = CC(C)(C)O*

Target: human ether-à-go-go-related gene (hERG) potassium channel (human, UniProt Q12809)
Assay: primary screen, population patch clamp on CHO cells stably expressing hERG

Sequence of human ether-à-go-go-related gene (hERG) potassium channel (Q12809 whole entry, looked up): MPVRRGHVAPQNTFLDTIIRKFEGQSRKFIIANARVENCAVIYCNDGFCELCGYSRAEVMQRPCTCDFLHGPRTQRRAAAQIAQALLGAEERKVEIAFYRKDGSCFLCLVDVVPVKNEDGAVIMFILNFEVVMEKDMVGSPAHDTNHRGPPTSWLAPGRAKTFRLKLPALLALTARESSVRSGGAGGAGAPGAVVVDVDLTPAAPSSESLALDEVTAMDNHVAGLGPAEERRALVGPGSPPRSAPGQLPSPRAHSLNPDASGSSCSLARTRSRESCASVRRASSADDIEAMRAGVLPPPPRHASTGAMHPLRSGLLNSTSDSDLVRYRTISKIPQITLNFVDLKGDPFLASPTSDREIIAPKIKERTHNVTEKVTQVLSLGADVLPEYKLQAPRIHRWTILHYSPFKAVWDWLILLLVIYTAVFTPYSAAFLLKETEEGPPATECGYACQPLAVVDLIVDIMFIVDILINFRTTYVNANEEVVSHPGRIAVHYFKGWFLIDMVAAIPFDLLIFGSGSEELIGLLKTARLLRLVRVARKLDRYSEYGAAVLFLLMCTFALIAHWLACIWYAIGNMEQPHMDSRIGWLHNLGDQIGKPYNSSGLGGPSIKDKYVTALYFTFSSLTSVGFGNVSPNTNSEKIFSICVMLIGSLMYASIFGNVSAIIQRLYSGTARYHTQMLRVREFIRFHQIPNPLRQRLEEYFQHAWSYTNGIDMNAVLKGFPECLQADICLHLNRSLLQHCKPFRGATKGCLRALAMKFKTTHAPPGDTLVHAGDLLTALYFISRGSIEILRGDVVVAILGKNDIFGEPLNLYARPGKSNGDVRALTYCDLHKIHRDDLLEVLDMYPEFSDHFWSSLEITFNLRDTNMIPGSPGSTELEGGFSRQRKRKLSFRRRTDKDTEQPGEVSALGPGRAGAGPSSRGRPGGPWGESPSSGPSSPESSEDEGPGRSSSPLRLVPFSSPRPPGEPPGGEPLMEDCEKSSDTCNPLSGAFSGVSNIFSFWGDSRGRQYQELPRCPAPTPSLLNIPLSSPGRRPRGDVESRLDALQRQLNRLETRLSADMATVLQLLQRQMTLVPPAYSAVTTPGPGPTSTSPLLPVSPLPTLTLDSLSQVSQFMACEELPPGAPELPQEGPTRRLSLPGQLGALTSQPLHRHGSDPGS

| Structure (SMILES) | hERG current change (%, negative = inhibition) at 1uM [%] |
| --- | --- |
| O=C(O)Cc1cccc2ccccc12 | 12.8 |
| C=CCNCCOCCOc1ccccc1-c1ccccc1.O=C(O)C(=O)O | -4.62 |
| Cc1cc(=O)[nH]c2ccc(S(=O)(=O)NCc3ccccc3)cc12 | -8.39 |
| COc1cc2c(cc1NC(=O)c1cccc([N+](=O)[O-])c1C)oc1ccccc12 | -6.52 |
| COC(=O)C(Cc1ccc(O)cc1)NC(=O)C(CC(=O)OC(C)(C)C)NC(=O)OC(C)(C)C (stereo not shown) (Boc-Asp(OtBu)-Tyr-OMe; configuration not given here) | 2.84 |
| COc1ccc(-c2cccc(C(=O)NCC(=O)O)c2)cc1 | 2.01 |
| CC1=NN(C(=O)c2cccc(Cn3nc(C)c([N+](=O)[O-])c3C)c2)C(O)(C(F)(F)F)C1 (stereo not shown) | -0.0693 |
| CC(C)CCNC(=O)CN1C(=O)CN=C(c2ccccc2)c2ccccc21 | 10 |
| O=C(NCCS(=O)(=O)N1CCCCC1)c1ccccc1 | 8.41 |
| Cc1cc2cc(C#N)c(N3CCN(S(C)(=O)=O)CC3)nc2cc1C | 0.625 |
| CCn1ncc(Br)c1C(=O)NC(C)c1ccccc1 (stereo not shown) | 6.29 |
| Cc1ccc(/C=N/NC(=O)c2csc3c2CCCC3)cc1 | 12.5 |
| O=C(Nc1ccccc1)c1ccc(S(=O)(=O)N2CCCC2)cc1 | -0.0057 |
| O=C1c2ccccc2C(=O)N1CCc1nc2ccccc2c(=O)n1CCCn1ccnc1 | -35.8 |
| Cc1sc2nc(C(C)C)oc(=O)c2c1C | 8.75 |
| COCCNC(=O)/C(=C/c1ccccc1Cl)c1ccccc1 | 13.7 |
| COc1ccc(NC(=O)c2ccc(=O)[nH]c2)cc1S(=O)(=O)N1CCCCC1 | 0.308 |
| Cc1ccc(N2C(=S)SC3CS(=O)(=O)CC32)cc1 (stereo not shown) | 6.01 |
| Cc1nc2c3c(sc2c(=O)[nH]1)NC(=O)CC3c1ccccc1Cl (stereo not shown) | 5.23 |
| COc1ccccc1CNC(=O)CCNC(=O)Cn1ccc2ccccc2c1=O | 4.62 |
| N=C1c2ccccc2CN1c1ccc(F)c([N+](=O)[O-])c1 | 7.4 |
| CC(=O)Nc1ccc(NS(=O)(=O)c2cc(-c3n[nH]c(=O)c4ccccc34)ccc2C)cc1 | 13.3 |

| Structure (SMILES) | hERG current change (%, negative = inhibition) at 1uM [%] |
| --- | --- |
| CCOC(=O)c1c(C)[nH]c(C(=O)OCC(=O)c2ccccc2)c1C | 8.37 |
| Cc1ccc(NC(=O)NNS(=O)(=O)c2ccc(Br)cc2)cc1 | 9.15 |
| COc1ccccc1-n1c(SCC(=O)Nc2cccc(S(N)(=O)=O)c2)nc2ccccc2c1=O | 11.8 |
| CCN(CC)CC.CCn1c(=S)sc2c(=O)n(-c3ccccc3)c(=S)[nH]c21 | 10.8 |
| COc1ccccc1-n1c(=O)c2c3c(sc2n2c(SC(C)C)nnc12)CCC3 | 17 |
| CNC(=O)Oc1cccc2ccccc12 | 12.7 |
| CSCSC1=C(C#N)C(c2ccc(Cl)cc2)C(C(C)=O)=C(C)N1 (stereo not shown) | -0.151 |
| CCC1CCCCN1C(=O)c1ccc(OC2CCN(C(=O)CCOC)CC2)cc1 (stereo not shown) | 13.6 |
| COc1ccc(CCNC(=O)C(=O)NCC2CCCO2)cc1 (stereo not shown) | -8.46 |
| Cc1cc(OCCCCCN2CCCC2)ccc1Cl.O=C(O)C(=O)O | -15 |
| CCc1ccccc1NC(=O)N1CCCc2ccccc21 | 6.9 |
| Cc1nn(-c2ccccc2)c(Cl)c1C(=O)NCC(=O)O | 23.8 |
| Cc1ccc(Nc2c([N+](=O)[O-])cc(C(=O)N3CC(=O)Nc4ccccc43)cc2[N+](=O)[O-])c(C)c1 | 14.9 |
| Cc1c(C(=O)Nc2c(C)n(C)n(-c3ccccc3)c2=O)oc2ccc(Cl)cc12 | -12.5 |
| Nc1[nH]n(-c2ccccc2)c(=O)c1N=Nc1ccccc1 | 2.63 |
| CCCCCCNC(=O)c1cc(-c2ccco2)nc2ccccc12 | 7.12 |
| Cc1ccc(-c2cc(C)nc3nc(N)nn23)cc1 | 4.08 |
| O=C(CCS(=O)(=O)c1ccc(F)cc1)Nc1nnc(-c2ccc(F)cc2)o1 | -1.98 |
| COc1ccc2oc(=O)c(C(=O)N3CCN(C(=O)c4ccccc4)CC3)cc2c1 | 14.2 |
| COc1ccc(Cl)cc1C(=O)OCC(=O)c1ccc[nH]1 | 11.3 |
| COc1nccc(C(F)(F)F)c1C(=O)Nc1ccc(Cl)cc1 | 5.29 |
| O=C(CCN1CCN(c2ccccc2)CC1)Nc1ccccc1 | 5.75 |

| Structure (SMILES) | hERG current change (%, negative = inhibition) at 1uM [%] |
| --- | --- |
| C=CCc1c(C)nc(N2CCSCC2)[nH]c1=O | 13.2 |
| O=C(NNc1nc(-c2ccccc2)cs1)c1ccc(F)cc1 | 3.41 |
| COc1ccc2c(c1OC)C(=O)OC2CC(=O)c1ccc(O)c(O)c1 (stereo not shown) | 20.6 |
| Cc1cc(C(=O)N2CCN(C(=O)C3CCCO3)CC2)no1 (stereo not shown) | 3.66 |
| Cc1cccc(OCC(=O)N2CCN(Cc3ccncc3)CC2)c1.O=C(O)C(=O)O | 10.2 |
| Cn1nccc1C(=O)OCC(=O)Nc1cccc(Cl)c1 | 6.89 |
| COc1ccc([N+](=O)[O-])cc1NC(=O)c1ccc(CN(c2ccccc2)S(C)(=O)=O)cc1 | 4.3 |
| O=C(NCC1CCCO1)c1ccccc1-c1nc(-c2ccc(Cl)cc2)no1 (stereo not shown) | -0.554 |
| O=C(CNC(=O)c1ccc(Br)cc1)c1ccc(Br)cc1 | 14.6 |
| CCN(CCNC(=O)CN1CCN(Cc2ccc(Cl)cc2)C1=O)c1ccccc1 | -8.93 |
| CCc1ccc(NC(=O)CSCc2ccc(C(=O)O)cc2)cc1 | 10.8 |
| CCc1nnc(NS(=O)(=O)c2ccc(NC(=O)c3cccc(Br)c3)cc2)s1 | 19.8 |
| COc1ccccc1OCC(=O)N1CCCC(N(C)Cc2ccccc2)C1 (stereo not shown) | -17.9 |
| COc1ccc(N(CC(=O)Nc2ccccc2C(=O)NCc2ccco2)S(C)(=O)=O)cc1 | 5.32 |
| COc1ccc2c(c1)[C@@H]1[C@H](CO2)[C@H](c2ccccc2)[C@]2(C)C(=O)Nc3ccc(C)cc3C(=O)N12 | -6.68 |
| CCn1c(C)cc(/C=C2/SC(=O)N(CC(=O)N3CCCC3)C2=O)c1C | 8.82 |
| COc1ccc(C(=O)NC2CC2)cc1OC1CCN(Cc2ccc(Cl)cc2)CC1 | -86.8 |
| CN(C)c1nc(N(C)C)nc(N(C#N)CCOc2ccccc2)n1 | 14.9 |
| Cc1cccc(C(=O)NC(C)C(=O)NC(c2nc3ccccc3[nH]2)C(C)C)c1 (stereo not shown) | 6.44 |
| COCCN(CC1CCCN(C2Cc3ccccc3C2)C1)C(=O)c1cccs1 (stereo not shown) | -35.4 |
| CC1CCCN(CC(=O)N2CCCc3ccccc32)C1.[O-][Cl+3]([O-])([O-])O (stereo not shown) | 9.38 |
| CCN(C(=O)CSc1nc2ccccc2c(=O)n1-c1ccc(C)cc1)C1CCS(=O)(=O)C1 (stereo not shown) | 1.16 |

| Structure (SMILES) | hERG current change (%, negative = inhibition) at 1uM [%] |
| --- | --- |
| CCCCCCC(C)OC(=O)c1ccccc1C(=O)O (stereo not shown) | 14.4 |
| COc1cc(/C=C2\SC(=S)N(CCC(=O)Nc3cccc(O)c3)C2=O)cc(OC)c1OC | 12.4 |
| O=P(O)(Oc1ccccc1)OC(c1ccccc1)C(F)(F)F (stereo not shown) | 18.5 |
| Cc1cc(C)nc(NNC(=O)NC2CCCCC2)n1 | 2.67 |
| CCn1cc(C(=O)N2CCCCC2)c(=O)c2cc(S(=O)(=O)N3CCC(C)CC3)ccc21 | -6.51 |
| CC(C(=O)Nc1ccc2c(c1)OCCO2)n1nnc(-c2ccccc2)n1 (stereo not shown) | 8.75 |
| O=C(Cn1c(=O)oc2ccccc21)NCC1COc2ccccc2O1 (stereo not shown) | 19.6 |
| COc1ccccc1/C=C/C(=O)OCC(=O)NNC(=O)c1ccccc1 | 5.96 |
| O=C(CSCc1ccc(Cl)cc1Cl)Nc1c[nH]c(=O)[nH]c1=O | 12.4 |
| CCn1cc(S(=O)(=O)NCCc2ccc(F)cc2)cn1 | -2.56 |
| O=C(CNS(=O)(=O)c1cccs1)N1CCCC1 | 12.1 |
| Cc1cccc(N(C(=O)Cn2nnc3ccccc32)C(C(=O)NC(C)(C)C)c2ccsc2)c1C (stereo not shown) | 14.5 |
| CCN(c1ccccc1)S(=O)(=O)c1ccc(Cl)c(C(=O)N2CCCC2)c1 | -0.349 |
| O=C(NN1C(=O)c2ccccc2NC1c1cccnc1)c1ccccc1 (stereo not shown) | 3.45 |
| CCC(=O)c1ccc(OCC(O)Cn2nc(C)c(C(C)=O)c2C)cc1 (stereo not shown) | 4.75 |
| CCOc1ccc(CCNC(=O)c2cccc(S(=O)(=O)N3CCOCC3)c2)cc1OCC | 5.02 |
| Cc1ccc(Cl)cc1NC(=O)c1ccccc1OCC(=O)Nc1ccc(Cl)cc1 | -5.79 |
| CCOc1ccc2nc(NCCNC(=O)CC)c(C#N)cc2c1 | 6.16 |
| O=C(COc1ccccc1Cl)NC(=O)NC1CCCCC1 | 9.41 |
| CCN(CC)C(=O)c1c(C)nc2ccccn12 | 9.13 |
| Clc1ccc(N/N=C/c2cccs2)nn1 | 10.2 |
| CCOc1cc(C(=O)Nc2cc(C(=O)OC)ccc2C)ccc1OCC(=O)N1CCOCC1 | 3.5 |
